Measurements published in PubChem BioAssay AID1030 (National Center for Advancing Translational Sciences (NCATS), 2008).
Out of some 220,000 compounds screened, about 16,000 (7.3%) were called active. The shares of active, inactive and inconclusive entries below differ from those in the screen. Calls come from the whole dose curve; as a rule, active = well fitted inhibition curve with a large enough effect (not every such curve was filed as active); inconclusive = small, poorly fitted or top-dose-only effect, or another doubt; inactive = no such curve, though single readings can be large or run the other way. Where the call is inconclusive, the potency comes from a doubtful curve fit.

target: Aldehyde dehydrogenase 1A1 (Homo sapiens) (UniProt P00352); assay: qHTS Assay for Inhibitors of Aldehyde Dehydrogenase 1 (ALDH1A1); details: Purified ALDH1A1, NADH fluorescence, propionaldehyde substrate; series mostly up to 75.3 µM; activity, negative = inhibition: at the top concentration;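 for activity, negative = inhibition: plate controls were no enzyme wells and a reference inhibitor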
Sequence of UniProt P00352 (P00352 whole entry, looked up): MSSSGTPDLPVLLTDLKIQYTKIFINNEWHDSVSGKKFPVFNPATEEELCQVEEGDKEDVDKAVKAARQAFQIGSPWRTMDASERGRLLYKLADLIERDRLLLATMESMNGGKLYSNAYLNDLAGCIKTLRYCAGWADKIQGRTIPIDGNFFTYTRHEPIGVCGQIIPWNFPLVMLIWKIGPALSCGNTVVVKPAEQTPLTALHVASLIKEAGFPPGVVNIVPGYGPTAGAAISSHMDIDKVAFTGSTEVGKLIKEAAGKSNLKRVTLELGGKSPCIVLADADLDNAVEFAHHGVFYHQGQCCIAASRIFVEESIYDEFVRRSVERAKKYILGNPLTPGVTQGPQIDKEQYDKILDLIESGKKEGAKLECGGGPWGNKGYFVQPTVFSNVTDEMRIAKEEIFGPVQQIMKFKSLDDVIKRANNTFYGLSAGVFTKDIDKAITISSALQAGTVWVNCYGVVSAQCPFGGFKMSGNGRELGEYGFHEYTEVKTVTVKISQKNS
Potency is the fitted concentration of half-maximal effect; tags give direction and shape of the fitted curve.

Potency, inactive:
CCn1nc(C(=O)O)c(=O)c2cc3c(cc21)OCO3

Potency, active:
CC(OC(=O)c1ccc(Cl)c(S(=O)(=O)N2CCc3ccccc32)c1)C(=O)Nc1ncc(Cl)cc1Cl (stereo not given) 25.1 µM
COc1ccc(N2CSC3=C(C#N)C(c4ccc(OC)c(OC)c4)CC(=O)N3C2)c(OC)c1 (stereo not given) 11.2 µM

Potency, inconclusive:
CCN(CC)c1ccc(-c2n[nH]c(=S)n2-c2ccccc2C)cc1 3.55 µM [inhibitor, full curve]
CC(C)c1ccc(CNc2ccc([N+](=O)[O-])cn2)cc1 39.8 µM [inhibitor, single point]
CCC(C)NC(=O)c1cc2cc3ccc(OC)cc3nc2s1 (stereo not given) 25.1 µM [inhibitor, partial curve]
Cc1ccsc1C1NC(=O)c2c(sc3c2CCCC3)N1 (stereo not given) 39.8 µM [inhibitor, single point]
C=CCN1C(=O)c2ccc(C(=O)OCC(=O)N(C)C3CCCCC3)cc2C1=O 7.08 µM [inhibitor, partial curve]
O=C(COc1nsnc1N1CCOCC1)N/N=C/c1ccccc1O 31.6 µM [inhibitor, single point]
CCC(c1nnnn1CCOC)N(Cc1ccc(C)cc1)Cc1cc2cc(OC)ccc2[nH]c1=O (stereo not given) 23.8 µM [inhibitor, partial curve]
Cc1ccc(-n2c(C)c([N+](=O)[O-])c3ccc(O)c(CN(C)C)c32)cc1 17.8 µM [inhibitor, partial curve, poor fit]
O=C(Nc1nc(-c2cccs2)cs1)c1cccc(S(=O)(=O)N2CCCCCC2)c1 37.7 µM [inhibitor, single point]
Cc1cc(C)c(C)c(S(=O)(=O)Nc2ccccc2C(=O)NCCCn2ccnc2)c1C 35.5 µM [inhibitor, partial curve]
CCCCN1CCC(CCC(=O)c2cc(Cl)c(N)cc2OC)CC1 39.8 µM [inhibitor, single point]

activity, negative = inhibition, inactive:
CCC(C)N(C(=O)c1csnn1)C(C(=O)NCc1ccc(F)cc1)c1ccco1 (stereo not given) -7.35%
COCCNC(=O)C(c1cccnc1)N(Cc1ccc(C)cc1)C(=O)Cn1nnc2ccccc21 (stereo not given) 4.32%
C[C@@]1(C(=O)O)CCC[C@@H]1C(=O)O 5.03% [at 13.5 µM]
O=C1CCCC(=O)N1c1ccc(N2CCN(c3ccccc3)CC2)c([N+](=O)[O-])c1 -11.2%
Cc1cc(/C=C/c2ccc3cc(N(C)C)ccc3[n+]2C)c(C)n1-c1ccccc1 -8.84%
CCOC(=O)C1CCN(C(=O)Cc2c(F)cccc2Cl)CC1 -3.44%
